Assay [1] concerns the target T1, Hat1p/Hat2p complex (yeast (Saccharomyces cerevisiae), UniProt Q12341;P39984). Put plainly: crystal structure.
The target of assay [2] is T2, Yeast Hat2p (full length) with N-terminal 6xHis tag (yeast (Saccharomyces cerevisiae), UniProt P39984 1-401).
T2 sequence: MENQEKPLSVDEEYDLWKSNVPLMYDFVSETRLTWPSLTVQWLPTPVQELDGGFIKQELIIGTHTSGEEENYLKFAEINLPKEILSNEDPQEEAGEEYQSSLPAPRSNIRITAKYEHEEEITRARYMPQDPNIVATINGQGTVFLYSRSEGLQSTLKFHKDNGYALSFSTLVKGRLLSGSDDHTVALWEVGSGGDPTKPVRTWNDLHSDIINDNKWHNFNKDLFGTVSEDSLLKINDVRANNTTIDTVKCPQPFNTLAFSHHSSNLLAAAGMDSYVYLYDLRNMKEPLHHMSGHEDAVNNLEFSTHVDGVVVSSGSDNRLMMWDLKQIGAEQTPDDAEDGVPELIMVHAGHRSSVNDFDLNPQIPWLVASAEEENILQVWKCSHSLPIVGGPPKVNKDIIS
Put plainly: crystal structure.

Assay [3] concerns the target Yeast Hat1p (1-320) (yeast (Saccharomyces cerevisiae), UniProt Q12341 1-320). As to the kind of experiment: crystal structure.
Assay [4] addresses T1, Hat1p/Hat2p complex. As to the kind of experiment: pull-down.

B1: Yeast histone H4 ([…]) peptide (domain or fragment)
chain: not shown
Regarding B1, the binding result in assay [1], in assay [2] and in assay [3] was “binds” in each case.

B2: GST-H4_([…]) (domain or fragment)
chain: not shown
As to B2, in assay [4], the binding result was “binds”.

Values taken from paper PMC4052767 (Genes & Development, 2014).
